# Measured values reported in the BET-seq Pho4 binding data (Le et al. 2018).
# Some of the results follow. The energies were worked out here from pooled read counts, against the library average; single values are noisy.
# Target: T1, Pho4 (S. cerevisiae) (UniProt P07270)
# T1 sequence: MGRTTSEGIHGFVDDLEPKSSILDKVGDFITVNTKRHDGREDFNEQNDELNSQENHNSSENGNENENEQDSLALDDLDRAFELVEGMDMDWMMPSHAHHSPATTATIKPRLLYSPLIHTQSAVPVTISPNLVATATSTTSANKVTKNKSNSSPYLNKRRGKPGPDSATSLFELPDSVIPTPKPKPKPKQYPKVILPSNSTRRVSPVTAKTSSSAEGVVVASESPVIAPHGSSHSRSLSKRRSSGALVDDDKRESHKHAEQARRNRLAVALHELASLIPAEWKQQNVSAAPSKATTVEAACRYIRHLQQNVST
# Assay: relative binding free energy (BET-seq); higher = weaker binding
# Details: reference: library average
row,Sequence,relative binding free energy [kcal/mol]
1,GGGGGCACGTGTGAAC,0.05
2,GCGAGCACGTGTGGAG,0.01
3,ATTGGCACGTGGGAGT,-0.17
4,AATATCACGTGGGGGT,-0.04
5,GTTAGCACGTGGTCGT,-0.06
6,GTGGACACGTGTTAAG,0.04
7,AGTAACACGTGTGGGA,0.11
8,GGGGCCACGTGTCGGG,0
9,GTTGTCACGTGTTAGC,0.14
10,TAGGACACGTGGACGT,-0.02
11,GTAGACACGTGGTGGG,-0.01
12,GTGTGCACGTGATTGT,0.18
13,GTATGCACGTGGTGTA,-0.1
14,AGGGGCACGTGAGTTC,0.16
15,TTTGGCACGTGGACAA,0
16,TGATTCACGTGATTAT,0.24
17,TGTCGCACGTGCGTTT,-0.14
18,CATTGCACGTGTGGTA,0.08
19,TTGGGCACGTGTATCA,-0.03
20,CTGTACACGTGAGGCG,0.39
21,GAAGGCACGTGTTTAT,-0.06
22,GTATTCACGTGATTGG,0.35
23,GGTGACACGTGGTATA,-0.13
24,GATATCACGTGTGGGG,0.17
25,TGTCTCACGTGGCGGG,0.2

row,Sequence,relative binding free energy [kcal/mol]
1,TAGATCACGTGGCGGG,0.06
2,GGCGGCACGTGTGCGT,-0.03
3,AGAGGCACGTGCATTG,-0.13
4,TTCGTCACGTGCGAGT,0.03
5,TGTGACACGTGTATCA,0.09
6,TTGTGCACGTGGTGTC,-0.04
7,TCTGTCACGTGAGTTT,0.28
8,GGGCGCACGTGAGGGG,0.16
9,TAGAACACGTGTGGTA,0.05
10,CGTATCACGTGGGTCA,0.07
11,TGGTGCACGTGATTAA,0
12,TATAGCACGTGGTGTC,-0.15
13,TGGAGCACGTGAGCTA,0.24
14,TATGGCACGTGGACGG,0.03
15,ATATTCACGTGTGTTA,0.29
16,AGAATCACGTGGGCTG,0.11
17,TGAGGCACGTGTTATT,-0.12
18,CTATGCACGTGTTGGA,0.07
19,CAGTGCACGTGTTTGT,-0.01
20,GAAGGCACGTGGCGCG,-0.17
21,TGCGGCACGTGGGTTG,-0.11
22,ATGAGCACGTGTTGTG,-0.08
23,ACGTTCACGTGTTTGT,0.23
24,TCGGGCACGTGACGGA,0.12
25,TGTTACACGTGGATTT,0.25

row,Sequence,relative binding free energy [kcal/mol]
1,ATATTCACGTGTGTTG,0.23
2,ATTTGCACGTGCGGCG,-0.1
3,GTCAACACGTGTGATG,0.22
4,CGTTGCACGTGGTGCG,-0.19
5,TATGTCACGTGGCATG,-0.17
6,TTGGTCACGTGTGAGC,0.24
7,ATCGGCACGTGTAAGT,0.03
8,GCGGACACGTGGTATG,-0.05
9,GGTCTCACGTGGAGAT,0.31
10,AGGTGCACGTGGTCAG,-0.32
11,ATAAACACGTGGTATT,-0.15
12,GTTGGCACGTGGACCG,0.02
13,TTTCCCACGTGTTGGG,-0.13
14,TGGTACACGTGATCTG,0.12
15,TAGATCACGTGATGGA,0.26
16,CTTGGCACGTGTGAAA,0
17,CTTTTCACGTGAGGTT,0.37
18,GCGTTCACGTGCTTTT,0.36
19,GTGCTCACGTGGCAGG,0.17
20,ACTAACACGTGGGGTT,-0.17
21,ATAGGCACGTGAGGTG,0.15
22,TTGATCACGTGGGGTC,-0.01
23,TAGATCACGTGCATGT,0.2
24,GATTGCACGTGATTTG,0.16
25,ACTATCACGTGGGTGA,0.03

row,Sequence,relative binding free energy [kcal/mol]
1,TGCCTCACGTGGTGTG,-0.1
2,AGATGCACGTGGGTGG,-0.17
3,GGACACACGTGGTGTG,-0.14
4,AGTCGCACGTGTATTG,-0.06
5,TGGACCACGTGGAAGG,0.15
6,CGTGCCACGTGGTTGA,-0.15
7,GTTTACACGTGGGTCG,0.12
8,TGGGGCACGTGAGTCG,0.19
9,ATGTTCACGTGATCGG,0.07
10,TTTAGCACGTGGTCGC,-0.16
11,TAGCTCACGTGGAGGT,0.33
12,GGTAACACGTGTTTGT,0.01
13,TTGGGCACGTGTCCTT,0.05
14,GATTGCACGTGATAGG,0.14
15,CTATGCACGTGGATGT,0
16,GTGAGCACGTGCACGG,-0.04
17,CAAGGCACGTGGTGTG,-0.23
18,AGGTGCACGTGTGAGT,0.14
19,CGCGGCACGTGGGGAA,-0.1
20,AGTTGCACGTGGCGCG,-0.03
21,AATATCACGTGATTTG,0.29
22,TACATCACGTGGAGTG,0.16
23,GTGTACACGTGGTCAT,-0.02
24,ATGATCACGTGTAGAG,0.16
25,GATTGCACGTGGCTTT,-0.03

row,Sequence,relative binding free energy [kcal/mol]
1,GGCATCACGTGTGTGC,0.19
2,GGGTACACGTGGGACA,0.01
3,GGTTCCACGTGCGTGG,0.01
4,AGAATCACGTGGAAGG,0.21
5,TTGCACACGTGGTGTA,-0.09
6,AGTGTCACGTGAAATT,0.27
7,GTAAACACGTGAGATT,0.35
8,ACGGTCACGTGTGAAG,0.14
9,ATTTTCACGTGTTTTG,0.18
10,CGTTGCACGTGATAAT,0.11
11,CGGTGCACGTGGAGGG,-0.05
12,TTTGTCACGTGGAAGT,0.34
13,GAGGGCACGTGGGCGG,-0.23
14,GAAGGCACGTGCTTTG,-0.07
15,AAATTCACGTGTATAG,0.26
16,GTGCGCACGTGATGAT,0.13
17,ATGGGCACGTGGTAAA,-0.01
18,ATGCTCACGTGTAAGG,0.34
19,GTAGGCACGTGTGTTT,0.09
20,TGCTGCACGTGCTGGT,-0.01
21,AATTGCACGTGTCATT,0.05
22,TTCCTCACGTGTGGGT,0.12
23,TGTGTCACGTGTAGGC,0.08
24,AGACGCACGTGTGGTA,0.11
25,GGAAACACGTGTGTGT,0.01

row,Sequence,relative binding free energy [kcal/mol]
1,TGGCGCACGTGTATCG,0.17
2,GGTGCCACGTGTGGAG,0.05
3,AATTGCACGTGATTTA,0.03
4,TGTCTCACGTGTAGTA,0.16
5,GGGAGCACGTGAGTGG,0.24
6,CGTTTCACGTGTGTTG,0.2
7,GGCTGCACGTGTAATT,0.23
8,ATTATCACGTGGGATT,0.13
9,AAGGTCACGTGTTTAG,0.05
10,ACTTACACGTGGGTTG,-0.05
11,TCGTGCACGTGTGTAA,-0.13
12,TAGCGCACGTGTGCGG,-0.1
13,TTATTCACGTGTTCGC,0.28
14,TTTGACACGTGTGCGA,0.05
15,GATGACACGTGATGGG,0.12
16,GAATTCACGTGGAATT,0.4
17,CTGTGCACGTGTGCGG,-0.04
18,TTTCGCACGTGTGCGG,-0.05
19,GGACTCACGTGTTATT,0.23
20,TGCTACACGTGTTATG,0.14
21,GAGGGCACGTGGGTTG,-0.21
